# Out of some 310,000 compounds screened, about 2,200 (0.71%) showed an effect of 50% or more. Effects have a minus sign here. The list shows a part of the results.
# Target: human ether-à-go-go-related gene (hERG) potassium channel (human, UniProt Q12809)
# Experiment: primary screen, population patch clamp on CHO cells stably expressing hERG
# Chain of human ether-à-go-go-related gene (hERG) potassium channel (Q12809 whole entry, looked up): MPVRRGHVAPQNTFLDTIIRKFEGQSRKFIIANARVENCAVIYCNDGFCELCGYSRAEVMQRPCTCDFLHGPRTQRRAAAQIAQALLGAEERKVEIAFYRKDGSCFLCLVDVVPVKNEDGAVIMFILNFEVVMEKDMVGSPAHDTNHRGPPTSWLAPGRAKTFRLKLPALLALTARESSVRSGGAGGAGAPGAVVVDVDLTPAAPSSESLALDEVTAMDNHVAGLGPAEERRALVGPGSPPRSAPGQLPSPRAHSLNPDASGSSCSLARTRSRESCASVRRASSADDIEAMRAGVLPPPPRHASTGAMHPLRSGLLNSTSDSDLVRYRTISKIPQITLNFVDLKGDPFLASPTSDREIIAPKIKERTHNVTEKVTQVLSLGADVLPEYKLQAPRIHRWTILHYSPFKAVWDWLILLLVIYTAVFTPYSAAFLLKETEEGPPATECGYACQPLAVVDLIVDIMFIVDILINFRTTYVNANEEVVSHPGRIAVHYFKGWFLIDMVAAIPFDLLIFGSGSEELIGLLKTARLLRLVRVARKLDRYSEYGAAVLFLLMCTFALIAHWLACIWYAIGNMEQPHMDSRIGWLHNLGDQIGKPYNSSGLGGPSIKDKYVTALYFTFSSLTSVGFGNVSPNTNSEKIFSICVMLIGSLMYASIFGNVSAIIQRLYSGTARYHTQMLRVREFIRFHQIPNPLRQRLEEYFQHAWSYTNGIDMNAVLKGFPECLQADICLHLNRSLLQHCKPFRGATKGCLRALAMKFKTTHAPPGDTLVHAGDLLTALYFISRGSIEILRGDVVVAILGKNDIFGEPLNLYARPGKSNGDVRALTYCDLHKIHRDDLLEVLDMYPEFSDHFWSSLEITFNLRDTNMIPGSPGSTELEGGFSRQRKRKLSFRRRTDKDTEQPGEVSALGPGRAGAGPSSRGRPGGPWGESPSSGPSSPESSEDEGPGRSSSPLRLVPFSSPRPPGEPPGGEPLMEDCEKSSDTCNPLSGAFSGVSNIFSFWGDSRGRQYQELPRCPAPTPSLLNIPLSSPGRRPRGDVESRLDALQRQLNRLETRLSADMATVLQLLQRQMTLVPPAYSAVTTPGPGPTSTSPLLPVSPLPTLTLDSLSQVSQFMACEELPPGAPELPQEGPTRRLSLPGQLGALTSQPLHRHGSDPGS
row,Structure (SMILES),"hERG current change (%, negative = inhibition) at 1uM [%]"
1,CCCCc1ccc(S(=O)(=O)Nc2cc(C)on2)cc1,5.25
2,CCOc1ccccc1-c1ccc(C(=O)NCc2ccccc2)o1,3.8
3,CCn1cnc2cc(NCc3ccc(Br)cc3)ccc21,2.64
4,CCCCn1c(O)c(C(C)=Nc2c(C)n(C)n(-c3ccccc3)c2=O)c(=O)[nH]c1=O,9.91
5,O=C(Nc1ccc2oc(=O)ccc2c1)c1cc2ccccc2o1,7.53
6,N#Cc1nc(-c2cccs2)oc1NCc1ccc(Cl)cc1,-11.5
7,O=C(O)CCC(=O)Nc1ccccc1C(=O)NCc1ccccc1,12.6
8,Cc1nc2ncnn2c(C)c1CCC(=O)NCCc1ccccc1,8.47
9,CCOC(=O)C1CCCN(Cc2cc(=O)oc3cc(C)c(C(C)C)cc23)C1 (stereo not drawn),9.25
10,COc1ccc(NC(=O)c2ccccc2N(Cc2ccccc2)S(C)(=O)=O)cc1OC,12.6
11,COc1ccc(-c2cn(CCN)c(-c3ccncc3)n2)cc1,11.4
12,CCn1c(=O)c(CCC(=O)NCC2CCCO2)c(C)c2c(C)nn(-c3ccc(C)cc3)c21 (stereo not drawn),19.9
13,COc1cc(OC)c(C(=O)OCC(=O)NCCC2=CCCCC2)cc1OC,7.02
14,Cc1cc(C)c(S(=O)(=O)c2ccccc2)c(OC(=O)c2cc(F)c(F)cc2Cl)n1,10.4
15,CS(=O)(=O)N(CC(=O)Nc1ccc2c(c1)OCCO2)Cc1ccc(Cl)cc1,0.692
16,O=C(CN(C(=O)CCC(=O)Nc1nccs1)c1ccc(F)c(Cl)c1)NCc1ccco1,4.35
17,COc1ccccc1NS(=O)(=O)c1ccc2c(c1)NC(=O)C(C)S2 (stereo not drawn),11.4
18,C#Cc1ccc([C@H]2C=C(C(=O)NCc3nc4ccccc4[nH]3)O[C@@H](OCc3ccc(CO)cc3)C2)cc1,8.42
19,COc1ccc(CCC(=O)NCCOc2ccccc2Cl)cc1,10.8
20,COC(=O)c1coc(-c2ccc(OC)cc2)c1C(=O)OC,8.33
21,Cn1c(O)c(/C=N/NC(=O)c2cc3ccccc3cc2O)c2ccccc21,22.4
22,CCCn1c(N2CCN(Cc3cccc(C)c3)CC2)nc2c1c(=O)[nH]c(=O)n2C,-9.58

row,Structure (SMILES),"hERG current change (%, negative = inhibition) at 1uM [%]"
1,CC1=CC(C)(C)N(C(=O)CNC2CCCCC2)c2cc(C)ccc21.O=C(O)C(=O)O,11
2,CC1CCN(C(=O)Cn2cnc3c2c(=O)n(C)c(=O)n3C)c2ccccc2S1 (stereo not drawn),1.42
3,CCc1nn(CCCC(=O)NCc2ccc(OC(C)C)cc2)c(=O)c2cc3occc3n12,6.99
4,O=C(Nc1ccc(F)c(Cl)c1)Nn1cnnc1,0.762
5,Cc1cc(C)nc(SCC(=O)OC(C)C(=O)Nc2ccccc2)n1 (stereo not drawn),14
6,Clc1ccc(-n2ncc3c(NCCN4CCOCC4)ncnc32)cc1,-5.98
7,CN1C2C=C3C(C#N)=C(N)C(C#N)(C#N)[C@H](c4c(F)cccc4F)[C@H]3C1CC2 (stereo partly drawn),-3.18
8,CNC(=O)c1c(I)c(C(=O)NCC(=O)Nc2c(I)c(C(=O)O)c(I)c(C(=O)NCCO)c2I)c(I)c(N(C)C(C)=O)c1I,12.5
9,c1ccc2cc(-c3cc4ccccn4c3)ccc2c1,8.28
10,Cn1c(NCCO)nc2c(c1=O)C1(CCCCC1)Cc1ccccc1-2,8.03
11,CSc1nc(Cc2ccccc2)nc2ccccc12,18.9
12,O=C(COc1ccc2ccccc2c1)NNC(=O)c1cnccn1,0.23
13,CCCOc1ccc(/C=N\NC(=O)CCc2n[nH]c(=O)[nH]c2=O)cc1OC,11.6
14,COc1cc(C(=O)NCCNC(=O)C2CCCNC2=O)cc(OC)c1OC (stereo not drawn),6.08
15,O=C(NN1C(=O)c2ccccc2NC1c1ccoc1)c1ccccc1 (stereo not drawn),6.28
16,Cc1nc(C)c2c(=O)cc(-c3ccccc3)[nH]c2n1,-13.6
17,O=C(CN(c1ccccc1)S(=O)(=O)c1ccccc1[N+](=O)[O-])Nc1ccccc1C(=O)N1CCOCC1,16.6
18,Cc1ccc(Cn2c(=O)c3c(nc4n3CCCN4Cc3ccccc3)n(C)c2=O)cc1,10.5
19,O=C(NC(=S)Nc1ccc(N2CCCCC2)cc1)c1ccc2c(c1)OCCO2,6.31
20,O=S1(=O)CCC(NC(=S)SCCOc2ccccc2)C1 (stereo not drawn),9.17
21,COc1ccccc1N1CCN(C(=O)c2n[nH]c3ccccc23)CC1,15.7
22,Cn1nc(-c2ccc(C(=O)NCC3CCCO3)cc2)c2ccccc2c1=O (stereo not drawn),-2.8

row,Structure (SMILES),"hERG current change (%, negative = inhibition) at 1uM [%]"
1,O=C(Cn1cnc2ccccc2c1=O)Nc1ccc2c(c1)OCCO2,-11.6
2,O=C(O)CS(=O)CC(=O)NCc1cccc(C(F)(F)F)c1 (stereo not drawn),12.6
3,CCCCn1nc(C(=O)Nc2ccc(S(=O)(=O)Nc3ncccn3)cc2)c2ccccc2c1=O,0.671
4,O=C(NC1CCCC1)C1CCN(C(=O)c2ccc(Cl)cc2)CC1,15.1
5,Cl.c1ccc(-c2ccccc2OCCOCCN2CCc3ccccc3C2)cc1,14.1
6,COc1ccc(CCN2C(=O)CCC2(C)C(=O)NC2CCCC2)cc1OC (stereo not drawn),13.3
7,CC(=O)NS(=O)(=O)c1ccc(NC(=O)c2ccc(Br)o2)cc1,9.43
8,COc1ccc(CCNC(=O)c2cnn3cccnc23)cc1OC,6.54
9,Cc1cc(NC(=O)c2ccc(Cl)cc2)n(CCOC(=O)c2ccc(Cl)cc2)n1,5.06
10,CCC1Sc2ccc(S(=O)(=O)CCC(=O)NCc3ccc(C)o3)cc2NC1=O (stereo not drawn),17.4
11,Cc1ccc(Cl)cc1NC(=O)C1C2CCC(O2)C1C(=O)O (stereo not drawn),19.5
12,O=S(=O)(Nc1ncnc2sc3c(c12)CCC3)c1cc(F)ccc1F,0.24
13,Cc1nc2ccccn2c1C(=O)N/N=C/c1ccc([N+](=O)[O-])cc1,6.81
14,O=C(O)C1CC1C(=O)Nc1cc(F)ccc1F (stereo not drawn),7.57
15,O=C(NCc1cc2ccccc2[nH]1)c1ccccc1F,17.4
16,CCOc1ccc(S(=O)(=O)Nc2cccc(C(=O)NCCCN3CCOCC3)c2)cc1,1.71
17,COc1cccc(CN2CCN(S(=O)(=O)c3ccc(Br)cc3)CC2)c1,-4.03
18,O=C(NCC1CCCO1)C(=O)N/N=C/c1ccccc1C(=O)O (stereo not drawn),17.1
19,COC(=O)c1cc(S(=O)(=O)n2nc(C)c(Br)c2C)c(Cl)cc1Cl,10.1
20,Cc1ccc(S(=O)(=O)N(C)CCCC(=O)Nc2ccc(F)cc2)cc1,3.19
21,Cc1cc(/C=C2/NC(=O)N(Cc3ccccc3F)C2=O)c(C)n1C,4.99
22,Cc1nc(SCc2c(Cl)cccc2Cl)nc(OC(=O)N(C)C)c1C,15.3

row,Structure (SMILES),"hERG current change (%, negative = inhibition) at 1uM [%]"
1,COc1ccc(NC(=O)CCn2c(=S)[nH]c3ccccc3c2=O)cc1OC,17.6
2,CC1CN(C(=S)Nc2ccc(Br)cc2Cl)CC(C)O1 (stereo not drawn),0.599
3,O=C(CSc1nc2ccccc2s1)c1cc2ccccc2o1,-4.81
4,COc1ccc(/C=C2\SC(=O)N(CCNC(=O)CN3C(=O)NC4(CCCC4)C3=O)C2=O)cc1,5.33
5,Cc1ccc2nc(SCC(=O)N(CC(C)C)c3c(N)n(CC(C)C)c(=O)[nH]c3=O)[nH]c2c1,12.2
6,COc1ccc(C(=O)NCC(=O)N=Nc2c(O)n(Cc3ccccc3)c3ccccc23)cc1OC,4.7
7,c1ccc2c(N3CCCCC3)nc(N3CCCC3)nc2c1,-64.6
8,CC1CC(C)CN(CCCNC(=O)C2CCCN(c3ncnc4c3nc3n4CCCCC3)C2)C1 (stereo not drawn),0.841
9,CN(CCC#N)C(=O)COC(=O)c1ccc2c(c1)C(=O)N(C1CCCCC1)C2=O,14.1
10,CC(NC(=O)c1cc(-c2cccnc2)nc2ccc(Br)cc12)C1CCCO1 (stereo not drawn),7.77
11,CC(Sc1nc2ccccc2[nH]1)C(=O)Nc1ccccc1F (stereo not drawn),11.6
12,COc1ccc(C(=O)Nc2ccc(C(=O)Nc3cccc(C)c3)cc2)cc1,17.1
13,Cc1noc(COc2ccccc2OCC(N)=O)c1Cl,4.47
14,COc1cccc(C(=O)N/N=C/c2ccc(OC)c(COc3ccccc3C(N)=O)c2)c1,11.9
15,Cc1c(NC(=S)N/N=C/c2cccc(O)c2)c(=O)n(-c2ccccc2)n1C,3.54
16,Cc1cc(C)c2oc(=O)cc(CN3CCN(Cc4ccccc4)CC3)c2c1,8.59
17,N#Cc1c(=O)c2nc(NCCCO)ncc2n2c(=O)c3ccccc3[nH]c12,13.5
18,CC1(C)Cc2cccc(OCC(=O)NC3CC3)c2O1,8.84
19,COCc1c(C(=O)OCC(=O)N2CCCC2=O)oc2ccccc12,17.5
20,C#CCn1c(=NC(=O)CSC(C)=O)sc2cc(F)ccc21,11.8
21,[Br-].c1ccc(-c2cn(-c3ccccc3)c3[n+]2CCS3)cc1,0.1
